These results are taken from paper PMC9456343.

These are yes or no findings as the source states them, for the method shown. For part of these data: Binding seen in cells or lysates may run through a third protein. Some entries that bind do so weakly or less than the wild type.

For assay [1], the target named is OsDMC1A (rice) (UniProt Q7GBF8). In words: two-hybrid; pGBKT7 bait and pGADT7 prey in Y2H Gold yeast; selection on SD/-His-Ade-Trp-Leu medium containing X-alpha-Gal and AbA.
The target in assay [2] is T1, OsDMC1B (rice) (UniProt Q7GBF7).
T1 sequence: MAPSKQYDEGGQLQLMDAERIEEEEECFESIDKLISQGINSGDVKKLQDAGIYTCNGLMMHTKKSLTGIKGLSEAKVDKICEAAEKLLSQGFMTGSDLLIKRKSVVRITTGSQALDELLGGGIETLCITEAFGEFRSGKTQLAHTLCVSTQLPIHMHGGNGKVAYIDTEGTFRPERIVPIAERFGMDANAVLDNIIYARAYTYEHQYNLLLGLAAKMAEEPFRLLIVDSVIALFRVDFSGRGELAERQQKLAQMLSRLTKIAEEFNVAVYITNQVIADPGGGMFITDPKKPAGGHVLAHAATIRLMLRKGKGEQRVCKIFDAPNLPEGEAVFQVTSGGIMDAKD
The description is as above.

Assay [3] addresses OsDMC1A (rice) (UniProt Q7GBF8). Put plainly: split reporter; BiFC with pSCYNE (SCN) and pSCYCE(R) (SCC) constructs in rice protoplasts; 28 °C in the dark for 18 h; CFP signals by confocal microscopy.
The target in assay [4] is T1, OsDMC1B (rice). The description is as above.

B1: OsDMC1A (protein, UniProt Q7GBF8 1-344)
chain: MAPSKQYSEGGQLQLMDAERIEEEEECFESIDKLISQGINSGDVKKLQDAGIYTCNGLMMHTKKSLTGIKGLSEAKVDKICEAAEKLLSQGFITGSDLLIKRKSVVRITTGSQALDKLLGGGIETLCITEAFGEFRSGKTQLAHTLCVSAQLPIHMHGGNGKVAYIDTEGTFRPERIVPIAERFGMDANAVLDNIIYARAYTYEHQYNLLLGLAAKMAEEPFRLLIVDSVIALFRVDFSGRGELAERQQKLAQMLSRLTKIAEEFNVAVYITNQVIADPGGGMFITDLKKPAGGHVLAHAATIRLMLRKGKGEQRVCKIFDAPNLPEGEAVFQVTSGGIMDAKD
As for B1, the binding result was “no binding” in the assay with OsDMC1A (rice) [1], “binds” with OsDMC1B (rice) [2], “no binding” in the assay with OsDMC1A (rice) [3] and “binds” with OsDMC1B (rice) [4].

B2: OsDMC1B (protein, UniProt Q7GBF7 1-344)
chain: MAPSKQYDEGGQLQLMDAERIEEEEECFESIDKLISQGINSGDVKKLQDAGIYTCNGLMMHTKKSLTGIKGLSEAKVDKICEAAEKLLSQGFMTGSDLLIKRKSVVRITTGSQALDELLGGGIETLCITEAFGEFRSGKTQLAHTLCVSTQLPIHMHGGNGKVAYIDTEGTFRPERIVPIAERFGMDANAVLDNIIYARAYTYEHQYNLLLGLAAKMAEEPFRLLIVDSVIALFRVDFSGRGELAERQQKLAQMLSRLTKIAEEFNVAVYITNQVIADPGGGMFITDPKKPAGGHVLAHAATIRLMLRKGKGEQRVCKIFDAPNLPEGEAVFQVTSGGIMDAKD
B2: the binding entry with OsDMC1B (rice) [2] and in the assay with OsDMC1B (rice) [4] was “no binding” in each case.
